IC50 is the fitted dose that halves viability relative to control wells, and lower means more sensitive; where the fit passes the top or lowest dose, that dose stands as a limit. AUC is the area under the same curve over the 256-fold range up to the top dose, as a fraction; it is 1 without any effect and falls as sensitivity rises. For part of these data: A top dose marked as inferred comes from the curve model; the source does not state it. For part of these data: Drugs with an entry number were screened twice under separate entries, and the two screens often disagree.
Columns and labels:
Test in all cases: Viability of human cancer cell lines after 72 h of drug (GDSC screen)
PHA-793887 = compound: CC(C)CC(=O)Nc1n[nH]c2c1CN(C(=O)C1CCN(C)CC1)C2(C)C [PHA-793887]; details: top dose 10.24 µM
Procedure: (§1)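 Human cancer cell lines in 384-well plates, medium with 10% serum, drug for 72 h over a 256-fold dose range (nine 2-fold or five 4-fold steps up to the top dose). Adherent lines were fixed and stained with the nucleic acid dye Syto60, suspension lines read with resazurin; signal relative to control wells, capped at 0 and 100%. One two-parameter sigmoid per drug and line, fitted in a mixed model over all curves with the slope shared within a line.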

Pyrimethamine = compound: CCc1nc(N)nc(N)c1-c1ccc(Cl)cc1 [Pyrimethamine]; details: top dose 20 µM; top dose inferred
Procedure: as §1

AZD-0530 = compound: CN1CCN(CCOc2cc(OC3CCOCC3)c3c(Nc4c(Cl)ccc5c4OCO5)ncnc3c2)CC1 [AZD-0530]; details: top dose 2 µM
Procedure: as §1

Epothilone B = compound: C/C(=C\c1csc(C)n1)[C@@H]1C[C@@H]2O[C@]2(C)CCC[C@H](C)[C@H](O)[C@@H](C)C(=O)C(C)(C)[C@@H](O)CC(=O)O1 [Epothilone B]; details: top dose 0.032 µM; top dose inferred
Procedure: as §1

Y-39983 = compound: C[C@@H](N)c1ccc(C(=O)Nc2ccnc3[nH]ccc23)cc1 [Y-39983]; details: top dose 20 µM; top dose inferred
Procedure: as §1

TPCA-1 = compound: NC(=O)Nc1sc(-c2ccc(F)cc2)cc1C(N)=O [TPCA-1]; details: top dose 20 µM
Procedure: as §1

PLX4720 = compound: CCCS(=O)(=O)Nc1ccc(F)c(C(=O)c2c[nH]c3ncc(Cl)cc23)c1F [PLX4720]; details: top dose 10 µM
Procedure: as §1

[1] = screen: GDSC drug entry 1371, top dose inferred

Row | Cell Line | AUC (PHA-793887) | IC50 (PHA-793887) | AUC (Pyrimethamine) | IC50 (Pyrimethamine) | AUC (AZD-0530) | IC50 (AZD-0530) | AUC (Epothilone B) | IC50 (Epothilone B) | AUC (Y-39983) | IC50 (Y-39983) | AUC (TPCA-1) | IC50 (TPCA-1) | AUC (PLX4720; screen: GDSC drug entry 1036) | IC50 (PLX4720; screen: GDSC drug entry 1036) | AUC (PLX4720; [1]) | IC50 (PLX4720; [1])
1 | OCI-LY-19 (B-cell lymphoma, suspension) | 0.455 | 486 nM | 0.965 | > 20000 nM | 0.984 | > 2000 nM | 0.415 | 1.2 nM | 0.89 | 20000 nM | 0.318 | 407 nM | 0.95 | > 10000 nM | 0.938 | > 10000 nM
2 | OCI-M1 (acute myeloid leukaemia, suspension) | 0.464 | 524 nM | 0.971 | > 20000 nM | 0.995 | > 2000 nM | 0.74 | 7.91 nM | 0.976 | > 20000 nM | 0.18 | 192 nM | 0.993 | > 10000 nM | 0.993 | > 10000 nM
3 | OMC-1 (cervix, adherent) | 0.931 | > 10200 nM | 0.972 | > 20000 nM | 0.977 | > 2000 nM | 0.825 | 20.5 nM | 0.985 | > 20000 nM | 0.918 | > 20000 nM | 0.984 | > 10000 nM | 0.986 | > 10000 nM
4 | OPM-2 (myeloma, suspension) | 0.725 | 2410 nM | 0.908 | 18800 nM | 0.993 | > 2000 nM | 0.853 | 18.2 nM | 0.895 | 16300 nM | 0.699 | 4010 nM | 0.979 | > 10000 nM | 0.993 | > 10000 nM
5 | OS-RC-2 (kidney, adherent) | 0.922 | > 10200 nM | 0.566 | 2060 nM | 0.821 | 1930 nM | 0.457 | 1.45 nM | 0.925 | > 20000 nM | 0.877 | > 20000 nM | 0.96 | > 10000 nM | 0.952 | > 10000 nM
6 | P31-FUJ (acute myeloid leukaemia, suspension) | 0.86 | 5500 nM | 0.995 | > 20000 nM | 0.996 | > 2000 nM | 0.996 | > 32 nM | 0.988 | > 20000 nM | 0.971 | > 20000 nM | 0.993 | > 10000 nM | 0.996 | > 10000 nM
7 | P32-ISH (Burkitt lymphoma, suspension) | 0.572 | 960 nM | 0.992 | > 20000 nM | 0.987 | > 2000 nM | 0.428 | 1.33 nM | 0.704 | 3960 nM | 0.621 | 2460 nM | 0.963 | > 10000 nM | 0.978 | > 10000 nM
8 | PF-382 (T-cell lymphoblastic leukaemia, suspension) | 0.566 | 944 nM | 0.866 | 14200 nM | 0.931 | > 2000 nM | 0.743 | 8.89 nM | 0.861 | 13700 nM | 0.667 | 3410 nM | 0.99 | > 10000 nM | 0.99 | > 10000 nM
9 | PL-21 (acute myeloid leukaemia, suspension) | 0.461 | 491 nM | 0.863 | > 20000 nM | 0.982 | > 2000 nM | 0.708 | 8.58 nM | 0.633 | 3100 nM | 0.601 | 2490 nM |  |  | 0.958 | > 10000 nM
10 | PSN1 (pancreas, adherent) | 0.279 | 171 nM | 0.649 | 2990 nM | 0.977 | > 2000 nM | 0.171 | 0.254 nM | 0.844 | 11100 nM | 0.812 | 8670 nM | 0.946 | > 10000 nM | 0.984 | > 10000 nM
11 | QIMR-WIL (acute myeloid leukaemia, suspension) | 0.349 | 247 nM | 0.777 | 7770 nM | 0.952 | > 2000 nM | 0.427 | 1.27 nM | 0.826 | 11700 nM | 0.378 | 583 nM | 0.935 | > 10000 nM | 0.966 | > 10000 nM
12 | REH (B-cell leukaemia, suspension) | 0.262 | 138 nM | 0.943 | > 20000 nM | 0.974 | > 2000 nM | 0.487 | 1.84 nM | 0.878 | 18900 nM | 0.578 | 2020 nM | 0.962 | > 10000 nM | 0.963 | > 10000 nM
13 | RF-48 (stomach, adherent) | 0.642 | 1660 nM | 0.833 | 15100 nM | 0.935 | > 2000 nM | 0.609 | 4.14 nM | 0.813 | 12500 nM | 0.307 | 334 nM | 0.953 | > 10000 nM | 0.975 | > 10000 nM
14 | RH-1 (rhabdomyosarcoma, adherent) | 0.701 | 2100 nM | 0.966 | > 20000 nM | 0.991 | > 2000 nM | 0.341 | 0.786 nM | 0.866 | 13200 nM | 0.575 | 1940 nM | 0.967 | > 10000 nM | 0.985 | > 10000 nM
